A word on the Kd: it is a measure of binding affinity in units of concentration. One may read the koff as the rate constant with which the complex falls apart. The low end stands for slow dissociation, the high end for fast dissociation. One may read the kon as the second-order rate constant of association. Read a low kon as slow association.

The target of the assay is T1, human TRIM21 PRYSPRY domain with N-terminal 6xHis tag (human).
T1 construct: Expressed from pET28a in E. coli; also called hTRIM21
T1 chain: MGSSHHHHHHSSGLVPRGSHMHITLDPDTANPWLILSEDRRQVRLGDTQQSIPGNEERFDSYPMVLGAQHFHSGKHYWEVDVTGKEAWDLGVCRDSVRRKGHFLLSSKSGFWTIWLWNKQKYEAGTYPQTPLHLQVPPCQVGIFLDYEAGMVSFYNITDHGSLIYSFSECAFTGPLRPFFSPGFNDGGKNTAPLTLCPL
As to the kind of experiment: SPR, Ab captured on Protein L, hTRIM21 12.5-200 nM. For orientation: Surface plasmon resonance follows binding to a sensor surface in real time, without labels.

B1: 3D8VH-G1m/hT4VL-KT0.Avi N315M (antibody, human IgG1, kappa)
heavy: EVQLVESGGGLVQPGGSLRLSCAASGYTFTSYVMHWVRQAPGKGLEWVSAINPYNDGNYYADSVKGRFTISRDNSRKTLYLQMNSLRAEDTAVYYCARGAYKRGYAMDYWGQGTTVTVSSASTKGPSVFPLAPSSKSTSGGTAALGCLVKDYFPEPVTVSWNSGALTSGVHTFPAVLQSSGLYSLSSVVTVPSSSLGTQTYICNVNHKPSNTKVDKKV[human IgG1 Fc with N315M (EU numbers) omitted here]
light: [about 200 residues omitted here]GGGGSGLNDIFEAQKIEWHE
B1: the affinity, expressed as Kd, was 14.1 nM; the koff was found to be 0.0294 s⁻¹; the kon was 2.09e+06 M⁻¹ s⁻¹.

B2: 3D8VH-G1m/hT4VL-KT0.Avi N315Q.M428F (antibody, human IgG1, kappa)
heavy: EVQLVESGGGLVQPGGSLRLSCAASGYTFTSYVMHWVRQAPGKGLEWVSAINPYNDGNYYADSVKGRFTISRDNSRKTLYLQMNSLRAEDTAVYYCARGAYKRGYAMDYWGQGTTVTVSSASTKGPSVFPLAPSSKSTSGGTAALGCLVKDYFPEPVTVSWNSGALTSGVHTFPAVLQSSGLYSLSSVVTVPSSSLGTQTYICNVNHKPSNTKVDKKV[human IgG1 Fc with N315Q M428F (EU numbers) omitted here]
light: [about 200 residues omitted here]GGGGSGLNDIFEAQKIEWHE
The molecule B2 registered a dissociation constant Kd of 3.58 nM, an off-rate (koff) of 0.00599 s⁻¹ and an on-rate constant (kon) of 1.67e+06 M⁻¹ s⁻¹.

B3: 3D8VH-G1m/hT4VL-KT0.Avi Q311E (antibody, human IgG1, kappa)
heavy: EVQLVESGGGLVQPGGSLRLSCAASGYTFTSYVMHWVRQAPGKGLEWVSAINPYNDGNYYADSVKGRFTISRDNSRKTLYLQMNSLRAEDTAVYYCARGAYKRGYAMDYWGQGTTVTVSSASTKGPSVFPLAPSSKSTSGGTAALGCLVKDYFPEPVTVSWNSGALTSGVHTFPAVLQSSGLYSLSSVVTVPSSSLGTQTYICNVNHKPSNTKVDKKV[human IgG1 Fc with Q311E (EU numbers) omitted here]
light: [about 200 residues omitted here]GGGGSGLNDIFEAQKIEWHE
B3 yielded a Kd of 19.6 nM, an off-rate (koff) of 0.00288 s⁻¹ and a kon of 147000 M⁻¹ s⁻¹.

B4: 3D8VH-G1m/hT4VL-KT0.Avi Q438E (antibody, human IgG1, kappa)
heavy: EVQLVESGGGLVQPGGSLRLSCAASGYTFTSYVMHWVRQAPGKGLEWVSAINPYNDGNYYADSVKGRFTISRDNSRKTLYLQMNSLRAEDTAVYYCARGAYKRGYAMDYWGQGTTVTVSSASTKGPSVFPLAPSSKSTSGGTAALGCLVKDYFPEPVTVSWNSGALTSGVHTFPAVLQSSGLYSLSSVVTVPSSSLGTQTYICNVNHKPSNTKVDKKV[human IgG1 Fc with Q438E (EU numbers) omitted here]
light: [about 200 residues omitted here]GGGGSGLNDIFEAQKIEWHE
With B4, the equilibrium dissociation constant (Kd) was 11.1 nM, the koff came to 0.0319 s⁻¹ and the kon came out at 2.87e+06 M⁻¹ s⁻¹.

B5: 3D8VH-G1m/hT4VL-KT0.Avi N315M.M428F (antibody, human IgG1, kappa)
heavy: EVQLVESGGGLVQPGGSLRLSCAASGYTFTSYVMHWVRQAPGKGLEWVSAINPYNDGNYYADSVKGRFTISRDNSRKTLYLQMNSLRAEDTAVYYCARGAYKRGYAMDYWGQGTTVTVSSASTKGPSVFPLAPSSKSTSGGTAALGCLVKDYFPEPVTVSWNSGALTSGVHTFPAVLQSSGLYSLSSVVTVPSSSLGTQTYICNVNHKPSNTKVDKKV[human IgG1 Fc with N315M M428F (EU numbers) omitted here]
light: [about 200 residues omitted here]GGGGSGLNDIFEAQKIEWHE
B5 returned a Kd of 3.8 nM, a dissociation rate constant (koff) of 0.00629 s⁻¹ and a kon of 1.66e+06 M⁻¹ s⁻¹.

B6: 3D8VH-G1m/hT4VL-KT0.Avi N315Q.Q438E (antibody, human IgG1, kappa)
heavy: EVQLVESGGGLVQPGGSLRLSCAASGYTFTSYVMHWVRQAPGKGLEWVSAINPYNDGNYYADSVKGRFTISRDNSRKTLYLQMNSLRAEDTAVYYCARGAYKRGYAMDYWGQGTTVTVSSASTKGPSVFPLAPSSKSTSGGTAALGCLVKDYFPEPVTVSWNSGALTSGVHTFPAVLQSSGLYSLSSVVTVPSSSLGTQTYICNVNHKPSNTKVDKKV[human IgG1 Fc with N315Q Q438E (EU numbers) omitted here]
light: [about 200 residues omitted here]GGGGSGLNDIFEAQKIEWHE
As for B6, binding was characterised by a dissociation constant (Kd) of 2.74 nM, the koff is 0.00801 s⁻¹ and the kon turned out to be 2.93e+06 M⁻¹ s⁻¹.

B7: 3D8VH-G1m/hT4VL-KT0.Avi N315M.Q438E (antibody, human IgG1, kappa)
heavy: EVQLVESGGGLVQPGGSLRLSCAASGYTFTSYVMHWVRQAPGKGLEWVSAINPYNDGNYYADSVKGRFTISRDNSRKTLYLQMNSLRAEDTAVYYCARGAYKRGYAMDYWGQGTTVTVSSASTKGPSVFPLAPSSKSTSGGTAALGCLVKDYFPEPVTVSWNSGALTSGVHTFPAVLQSSGLYSLSSVVTVPSSSLGTQTYICNVNHKPSNTKVDKKV[human IgG1 Fc with N315M Q438E (EU numbers) omitted here]
light: [about 200 residues omitted here]GGGGSGLNDIFEAQKIEWHE
As to B7, binding was put at a Kd of 2.71 nM, the koff was 0.00787 s⁻¹ and the kon was determined as 2.9e+06 M⁻¹ s⁻¹.

B8: 3D8VH-G1m/hT4VL-KT0.Avi N315M.Y436T (antibody, human IgG1, kappa)
heavy: EVQLVESGGGLVQPGGSLRLSCAASGYTFTSYVMHWVRQAPGKGLEWVSAINPYNDGNYYADSVKGRFTISRDNSRKTLYLQMNSLRAEDTAVYYCARGAYKRGYAMDYWGQGTTVTVSSASTKGPSVFPLAPSSKSTSGGTAALGCLVKDYFPEPVTVSWNSGALTSGVHTFPAVLQSSGLYSLSSVVTVPSSSLGTQTYICNVNHKPSNTKVDKKV[human IgG1 Fc with N315M Y436T (EU numbers) omitted here]
light: [about 200 residues omitted here]GGGGSGLNDIFEAQKIEWHE
In turn, B8 registered an equilibrium dissociation constant (Kd) of 4.27 nM, a dissociation rate constant (koff) of 0.00426 s⁻¹ and an on-rate constant (kon) of 997000 M⁻¹ s⁻¹.

B9: 3D8VH-G1m/hT4VL-KT0.Avi N315M.L432P (antibody, human IgG1, kappa)
heavy: EVQLVESGGGLVQPGGSLRLSCAASGYTFTSYVMHWVRQAPGKGLEWVSAINPYNDGNYYADSVKGRFTISRDNSRKTLYLQMNSLRAEDTAVYYCARGAYKRGYAMDYWGQGTTVTVSSASTKGPSVFPLAPSSKSTSGGTAALGCLVKDYFPEPVTVSWNSGALTSGVHTFPAVLQSSGLYSLSSVVTVPSSSLGTQTYICNVNHKPSNTKVDKKV[human IgG1 Fc with N315M L432P (EU numbers) omitted here]
light: [about 200 residues omitted here]GGGGSGLNDIFEAQKIEWHE
In the case of B9, the dissociation constant Kd was 5.33 nM, the koff was determined as 0.0068 s⁻¹ and the kon stood at 1.27e+06 M⁻¹ s⁻¹.

B10: 3D8VH-G1m/hT4VL-KT0.Avi N315Q (antibody, human IgG1, kappa)
heavy: EVQLVESGGGLVQPGGSLRLSCAASGYTFTSYVMHWVRQAPGKGLEWVSAINPYNDGNYYADSVKGRFTISRDNSRKTLYLQMNSLRAEDTAVYYCARGAYKRGYAMDYWGQGTTVTVSSASTKGPSVFPLAPSSKSTSGGTAALGCLVKDYFPEPVTVSWNSGALTSGVHTFPAVLQSSGLYSLSSVVTVPSSSLGTQTYICNVNHKPSNTKVDKKV[human IgG1 Fc with N315Q (EU numbers) omitted here]
light: [about 200 residues omitted here]GGGGSGLNDIFEAQKIEWHE
B10 had an equilibrium dissociation constant (Kd) of 13.4 nM, an off-rate constant (koff) of 0.0273 s⁻¹ and a kon of 2.03e+06 M⁻¹ s⁻¹.

B11: 3D8VH-G1m/hT4VL-KT0.Avi N315Q.L432P (antibody, human IgG1, kappa)
heavy: EVQLVESGGGLVQPGGSLRLSCAASGYTFTSYVMHWVRQAPGKGLEWVSAINPYNDGNYYADSVKGRFTISRDNSRKTLYLQMNSLRAEDTAVYYCARGAYKRGYAMDYWGQGTTVTVSSASTKGPSVFPLAPSSKSTSGGTAALGCLVKDYFPEPVTVSWNSGALTSGVHTFPAVLQSSGLYSLSSVVTVPSSSLGTQTYICNVNHKPSNTKVDKKV[human IgG1 Fc with N315Q L432P (EU numbers) omitted here]
light: [about 200 residues omitted here]GGGGSGLNDIFEAQKIEWHE
Molecule B11 had a Kd of 5.2 nM, a koff of 0.00745 s⁻¹ and a kon of 1.43e+06 M⁻¹ s⁻¹.

B12: 3D8VH-G1m/hT4VL-KT0.Avi N315M.T437D (antibody, human IgG1, kappa)
heavy: EVQLVESGGGLVQPGGSLRLSCAASGYTFTSYVMHWVRQAPGKGLEWVSAINPYNDGNYYADSVKGRFTISRDNSRKTLYLQMNSLRAEDTAVYYCARGAYKRGYAMDYWGQGTTVTVSSASTKGPSVFPLAPSSKSTSGGTAALGCLVKDYFPEPVTVSWNSGALTSGVHTFPAVLQSSGLYSLSSVVTVPSSSLGTQTYICNVNHKPSNTKVDKKV[human IgG1 Fc with N315M T437D (EU numbers) omitted here]
light: [about 200 residues omitted here]GGGGSGLNDIFEAQKIEWHE
B12 registered a Kd of 2.48 nM, an off-rate (koff) of 0.0072 s⁻¹ and a kon of 2.91e+06 M⁻¹ s⁻¹.

B13: 3D8VH-G1m/hT4VL-KT0.Avi N315Q.Y436T (antibody, human IgG1, kappa)
heavy: EVQLVESGGGLVQPGGSLRLSCAASGYTFTSYVMHWVRQAPGKGLEWVSAINPYNDGNYYADSVKGRFTISRDNSRKTLYLQMNSLRAEDTAVYYCARGAYKRGYAMDYWGQGTTVTVSSASTKGPSVFPLAPSSKSTSGGTAALGCLVKDYFPEPVTVSWNSGALTSGVHTFPAVLQSSGLYSLSSVVTVPSSSLGTQTYICNVNHKPSNTKVDKKV[human IgG1 Fc with N315Q Y436T (EU numbers) omitted here]
light: [about 200 residues omitted here]GGGGSGLNDIFEAQKIEWHE
As for B13, the equilibrium dissociation constant (Kd) was found to be 5.82 nM, the koff was found to be 0.00641 s⁻¹ and the on-rate constant (kon) came out at 1.1e+06 M⁻¹ s⁻¹.

B14: 3D8VH-G1m/hT4VL-KT0.Avi N315Q.T437D (antibody, human IgG1, kappa)
heavy: EVQLVESGGGLVQPGGSLRLSCAASGYTFTSYVMHWVRQAPGKGLEWVSAINPYNDGNYYADSVKGRFTISRDNSRKTLYLQMNSLRAEDTAVYYCARGAYKRGYAMDYWGQGTTVTVSSASTKGPSVFPLAPSSKSTSGGTAALGCLVKDYFPEPVTVSWNSGALTSGVHTFPAVLQSSGLYSLSSVVTVPSSSLGTQTYICNVNHKPSNTKVDKKV[human IgG1 Fc with N315Q T437D (EU numbers) omitted here]
light: [about 200 residues omitted here]GGGGSGLNDIFEAQKIEWHE
Take B14: the Kd was 3.28 nM, the koff was found to be 0.00639 s⁻¹ and the association rate constant (kon) is 1.95e+06 M⁻¹ s⁻¹.

The record behind these values is patent publication US20210238308A1 (Chugai, published 2021).
